According to PubChem BioAssay AID504339 (National Center for Advancing Translational Sciences (NCATS), 2011):
Where “and” joins values, the source holds several entries; their conditions need not be identical. Equal entries are not always repeated. The campaign covered roughly 390,000 compounds. About 17,000 (4.4%) were called active. This list was built around the results that the source calls inconclusive (neither active nor inactive); the mix of calls is not that of the screen. The call rests on the fitted dose curve; in most records, active means well fitted inhibition curve with a large enough effect; inconclusive means small, poorly fitted or top-dose-only effect; inactive means no such curve, though single readings can be large or run the other way. Potencies beside an inconclusive call are fits to weak or partial responses and may not hold up.

Biological target: Lysine-specific demethylase 4A (Homo sapiens) (UniProt O75164)
Sequence of UniProt O75164 (O75164 whole entry, looked up, the tested form may be a part): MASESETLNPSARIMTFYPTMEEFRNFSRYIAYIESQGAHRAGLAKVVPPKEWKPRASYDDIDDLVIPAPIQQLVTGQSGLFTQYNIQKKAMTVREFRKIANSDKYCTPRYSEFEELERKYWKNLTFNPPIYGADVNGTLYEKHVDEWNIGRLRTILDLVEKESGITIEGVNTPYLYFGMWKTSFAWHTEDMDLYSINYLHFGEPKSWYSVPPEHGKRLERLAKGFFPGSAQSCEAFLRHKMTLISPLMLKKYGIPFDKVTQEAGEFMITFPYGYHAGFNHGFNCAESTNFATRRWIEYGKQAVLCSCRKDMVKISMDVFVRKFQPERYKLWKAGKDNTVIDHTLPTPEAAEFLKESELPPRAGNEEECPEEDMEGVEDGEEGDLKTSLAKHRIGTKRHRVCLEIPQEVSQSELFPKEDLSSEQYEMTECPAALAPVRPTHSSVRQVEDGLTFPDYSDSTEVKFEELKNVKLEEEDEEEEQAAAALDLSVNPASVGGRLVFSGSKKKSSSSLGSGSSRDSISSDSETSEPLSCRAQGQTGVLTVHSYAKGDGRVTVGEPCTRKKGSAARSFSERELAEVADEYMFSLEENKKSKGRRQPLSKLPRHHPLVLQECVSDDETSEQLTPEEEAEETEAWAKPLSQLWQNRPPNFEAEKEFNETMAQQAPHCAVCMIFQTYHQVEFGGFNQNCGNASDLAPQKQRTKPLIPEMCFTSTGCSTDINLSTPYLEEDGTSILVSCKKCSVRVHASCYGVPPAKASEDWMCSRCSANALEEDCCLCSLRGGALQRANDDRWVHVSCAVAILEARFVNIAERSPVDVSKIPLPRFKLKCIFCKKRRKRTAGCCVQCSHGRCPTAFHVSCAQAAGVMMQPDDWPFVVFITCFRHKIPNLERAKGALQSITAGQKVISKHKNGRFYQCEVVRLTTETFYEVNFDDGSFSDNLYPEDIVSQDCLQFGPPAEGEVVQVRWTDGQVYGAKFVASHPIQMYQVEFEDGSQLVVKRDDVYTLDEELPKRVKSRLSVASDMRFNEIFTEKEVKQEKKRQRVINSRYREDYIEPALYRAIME
Test: qHTS Assay for Inhibitors of JMJD2A-Tudor Domain; further: nearly all actives have a fitted effect of over 50% in size
Conditions: AlphaScreen JMJD2A-Tudor / H3K4me3 peptide binding; series mostly up to 114 µM
Potency means the concentration at half of the fitted maximal effect; tags describe the fitted curve by direction and shape.

Compound | Potency
NS(=O)(=O)c1ccc(S(=O)(=O)N2CCN(c3nc(-c4cccs4)nc4ccccc34)CC2)cc1 | inactive
O=C(Nc1ccc(C(=O)N2CCN(c3ccc(F)cc3)CC2)cc1)c1nsc2ccccc12 | inconclusive: 50.1 µM [inhibitor, partial curve]
Cc1ccc(CCNC(=O)c2coc3nc4ccccc4nc23)cc1 | active: 39.8 µM
COc1cccc(=O)c2c(C)n(C)c(C)c12 | inconclusive: 50.1 µM [inhibitor, partial curve]
O=C1CSC2=NCN(c3ccc4c(c3)OCO4)CN12 | inconclusive: 56.2 µM [inhibitor, partial curve]
c1ccc2c(c1)nc1n2CCN1CCN1CCCC1 | inactive
CC(C(=O)Nc1ccc2c(c1)OCO2)N1CCN(C)CC1 (configuration not stated) | active: 0.794 µM
Cc1ccc(S(=O)(=O)c2cn(Cc3cccc(F)c3)c3cc(N4CCCC4)c(F)cc3c2=O)cc1 | inactive
O=C(O)c1ccc(-n2c(-c3cc(C4CC4)[nH]n3)n[nH]c2=S)cc1 | active: 20 µM
CCCOc1ccccc1-c1nc(SCC(=O)c2ccccc2)n[nH]1 | inactive
CC(C)CN1CCNC(=O)C1CC(=O)N(C)CC1CCOCC1 (configuration not stated) | inconclusive: 28.2 µM [inhibitor, partial curve]
CCc1ccccc1NC(=O)CNC(=O)c1ccc(OCc2cn3ccccc3n2)cc1 | inconclusive: 5.01 µM [inhibitor, full curve, poor fit]
CCOc1ccc2c(c1)c1nnc(SCC3CCCO3)nc1n2C (configuration not stated) | inconclusive: 28.2 µM [inhibitor, single point]
COc1cccc(C(=O)NNc2c3ccccc3nc3ccccc23)c1 | inconclusive: 17.8 µM [inhibitor, partial curve, poor fit]
COc1ccc(CCNC(=O)C(=O)NCC2OCCN2S(=O)(=O)c2ccccc2)cc1OC (configuration not stated) | inconclusive: 79.4 µM [inhibitor, partial curve, poor fit]
CC(/C=N/n1c(-c2cccnc2)n[nH]c1=S)=C\c1ccco1 | active: 3.98 µM
O=[N+]([O-])c1ccc(O)c(/C=N/n2c(-c3ccccc3)n[nH]c2=S)c1 | active: 5.62 µM
CCN1C(=O)/C(=C\C=C\c2ccccc2[N+](=O)[O-])SC1=S | inconclusive: 4.47 µM [inhibitor, full curve]
O=C(Cc1ccc(Br)cc1)N/N=C/c1ccc(-c2cccc(C(=O)O)c2)o1 | inactive
O=C(Nc1ccc(OCC(=O)N2CCC(Cc3ccccc3)CC2)cc1)c1ccco1 | inconclusive: 89.1 µM [inhibitor, partial curve]
CCOc1ccccc1/C=N/n1c(C2CCCCC2)n[nH]c1=S | inconclusive: 17.8 µM [inhibitor, full curve]
COc1ccc(/C=N/NC(=O)c2ccc(O)cc2)cc1CN1CCCc2ccccc21 | inconclusive: 39.8 µM [inhibitor, single point]
CCC(C)NCCOCCOc1ccc(Cl)cc1Br (configuration not stated) | active: 2.51 µM
Cc1ccc(NC(=O)Cc2nc(CN(C)CC(=O)Nc3ccc(C)cc3)cs2)cc1 | inconclusive: 56.2 µM [inhibitor, partial curve, poor fit]

Compound | Potency
CCOc1ccc(NC(=O)CSc2nnc(CNC(=O)c3ccco3)o2)cc1 | inactive
CC(=O)C1=C(C)N(CC2CC2)C(=O)N[C@H]1c1ccc(Br)cc1 | inactive
Cc1ccc(-c2c(CN3CCN(c4cc(C)ccc4C)CC3)csc2C)cc1 | inconclusive: 89.1 µM [inhibitor, single point]
COc1cc(C(CCN2CCN(c3ccccc3)CC2)c2c(OC)cc(OC)c3ccc(=O)oc23)cc(OC)c1OC (configuration not stated) | inconclusive: 35.5 µM [inhibitor, partial curve] and inconclusive: 44.7 µM [inhibitor, partial curve]
CCOc1ccccc1-c1nc(CN2CCN(C(=O)c3ccco3)CC2)c(C)o1 | inactive
Cc1ccc(S(=O)(=O)/N=C2/NC(=O)/C(=C/c3ccc(Br)o3)S2)cc1 | inconclusive: 79.4 µM [inhibitor, partial curve]
OC(CN1c2ccccc2Sc2ccccc21)Cn1nnc2ccccc21 (configuration not stated) | inconclusive: 31.6 µM [inhibitor, partial curve]
Cn1c(=O)n(C)c2cc(NS(=O)(=O)c3ccc(F)cc3)c(NCc3ccccc3)cc21 | inconclusive: 3.98 µM [inhibitor, partial curve]
O=C(O)C1C2C=CC(O2)C1C(=O)NCCC1=CCCCC1 (configuration not stated) | inactive
Cc1nc(NC(=O)CSc2nccn2C)sc1C(=O)N(C)C | inactive
CC1(C)Cc2ccccc2C2CC(O)C(=O)N21 (configuration not stated) | active: 89.1 µM
O=C(O)c1ccc(S(=O)(=O)Nc2ccc(O)c(Sc3nc4ccccc4s3)c2)cc1 | active: 89.1 µM
CO/N=C/c1ccc(Oc2ccc(C)cc2)c([N+](=O)[O-])c1 | active: 12.6 µM
Cc1ccc(NC(=O)c2cc(-c3ccco3)on2)cc1 | inactive
CCC(=O)Nc1ccc(C(=O)NNC(=O)COc2cccc(C)c2)cc1 | inactive
Cc1nn(-c2ccccc2)c(N)c1Sc1cccc([N+](=O)[O-])c1 | active: 56.2 µM
COc1ccc(S(=O)(=O)n2nc(C)c(S(=O)(=O)N3CCCCC3)c2C)cc1 | inconclusive: 79.4 µM [inhibitor, single point]
COc1ccc(-c2nn(CCC(=O)O)cc2/C=C2\SC(N)=NC2=O)cc1OC | inconclusive: 63.1 µM [inhibitor, single point]
O=C(NC1CCCC1)c1ncn[nH]1 | active: 31.6 µM
CCOC(=O)C(C(=O)OCC)=C1OC(=O)c2ccccc21 | inconclusive: 100 µM [inhibitor, partial curve, poor fit]
Cc1ccc(C2C=C(c3ccccc3)Nc3nc(N4C(=O)CCC4=O)nn32)cc1 (configuration not stated) | active: 79.4 µM
CCN(CCCNC(=O)c1c(C)cc(=O)oc1C)c1cccc(C)c1 | inconclusive: 56.2 µM [inhibitor, partial curve]
CCS(=O)(=O)Nc1ccc(NC(C)=O)cc1 | inactive
COc1cc(F)c(S(=O)(=O)N2CCCN(S(=O)(=O)c3cccc(N)c3)CC2)c(F)c1 | inconclusive: 89.1 µM [inhibitor, single point]

Compound | Potency
COc1ccc(-c2nc(SCC(=O)NC3CCCC3)c(-c3ccc(OC)cc3)[nH]2)cc1 | inconclusive: 56.2 µM [inhibitor, partial curve]
CC12CCC(=O)N1C(C(=O)Nc1nc(-c3ccccc3Cl)cs1)CS2 (configuration not stated) | inactive
CC1Oc2ccccc2C=C1/C=N/NC(=O)c1ccccc1O (configuration not stated) | inconclusive: 89.1 µM [inhibitor, single point]
CCOCCCNCC(=O)Nc1ccccc1N1CCOCC1 | active: 3.98 µM
Cn1cccc1-c1cc(C(=O)N/N=C/c2ccc(Cl)cc2)[nH]n1 | inconclusive: 10 µM [inhibitor, full curve, poor fit]
C=CCn1c(COc2cccc3ccc(C)nc23)nnc1SCC(=O)O | active: 28.2 µM
Cc1ccccc1Oc1ccc2c(c1)[C@@H]1C[C@H](N(C)C(=O)NC3CCCCC3)[C@H]([C@H](C)O)C(=O)N1CC2 | inconclusive: 56.2 µM [inhibitor, partial curve]
COc1ccc(CCNC(=O)C2CCN(C(=O)c3ccc(Br)cc3)CC2)cc1 | inconclusive: 15.8 µM [inhibitor, partial curve, poor fit]
CC1=NN(C(=O)c2ccc(Br)cc2)C(O)(c2ccccc2)C1 (configuration not stated) | inconclusive: 56.2 µM [inhibitor, partial curve]
CCn1c(O)c(N=NC2=NC(=O)CS2)c2ccccc21 | inconclusive: 89.1 µM [inhibitor, single point]
COc1cccc(C2CC(=O)Nc3cc4c(cc32)OCO4)c1OC(C)C (configuration not stated) | inconclusive: 39.8 µM [inhibitor, partial curve, poor fit]
CCn1cc(Cl)c(C(=O)N2N=C(c3ccc4ccccc4c3)CC2c2ccccc2O)n1 (configuration not stated) | inconclusive: 50.1 µM [inhibitor, partial curve]
COc1ccccc1CNC(=O)c1cc(-c2ccccc2)n(Cc2cc(C)no2)n1 | inconclusive: 50.1 µM [inhibitor, partial curve]
CSc1ccc(/C=N/N2CCN(Cc3ccc(Cl)cc3)CC2)cc1 | inconclusive: 31.6 µM [inhibitor, partial curve]
CSc1nc2ccc3nc(NC(=O)c4ccc(C)cc4)sc3c2s1 | inactive
COc1cc(OC)c(OC)cc1/C=N/NC(=O)c1cnccn1 | inconclusive: 39.8 µM [inhibitor, single point]
N#CC(c1ccncc1)(c1ncc(C(F)(F)F)cc1Cl)N1CCOCC1 (configuration not stated) | inconclusive: 35.5 µM [inhibitor, partial curve]
COc1cc(CNc2nc3c(C)cc(C)cc3s2)ccc1O | inconclusive: 12.6 µM [inhibitor, full curve]
NNc1cc(C(=O)O)ccc1Cl | active: 25.1 µM
O=C(Nc1cccc(Cl)c1)c1ccc2nc(CCc3ccccc3)oc2c1 | inactive
COc1ccccc1NCC(=O)N/N=C/c1sccc1C | inconclusive: 56.2 µM [inhibitor, partial curve]
Cc1cc(C(=O)NC2=NCCS2)cs1 | inactive
Cc1cccc(NC(=O)c2ccc(Cn3cc(C(F)(F)F)ccc3=O)cc2)c1 | inconclusive: 89.1 µM [inhibitor, single point]
CCC(CC)C1=NN2C(=N)/C(=C/c3ccc(OC(=O)c4ccco4)cc3)C(=O)N=C2S1 | inconclusive: 28.2 µM [inhibitor, full curve, poor fit]
